Consider 57 molecules from ChEMBL document CHEMBL1201862, “PubChem BioAssay data set” (2004).

The structures appear in SMILES notation.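 Assay format: 96-well plates, 48-hour exposure. GI50 is the concentration that inhibits growth by half.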 Active and inactive are the calls of the source. No stated cut-off is given here; in the data, active = GI50 up to about 1.1 µM and inactive = higher. A value given as a limit tells only on which side of the number the result lay.

The test system of the assay is NCI-H322M. The experiment in a line: growth of human tumour cells (NCI), 48 h.
For `CCC(=O)C1(c2ccccc2)CCN(C)CC1`, the GI50 is inactive: > 100 µM.

`O=C(O)c1ccccc1NCn1c(=S)sc2ccccc21`: the GI50 is inactive: > 100 µM.

As to `CC(C)C(C/C=C1\CC(CO)(COC(=O)CC(C(C)C)C(C)C)OC1=O)C(C)C` (configuration not stated), the GI50 is inactive: 13.5 µM.

Regarding `Cc1nc(N)nc2ccccc12`, the GI50 is inactive: > 100 µM.

For the molecule `COC1=C(Br)C(=O)c2nc(C)ccc2C1=O`, the GI50 is inactive: 23.1 µM.

With `c1ccc(CCNc2ccccn2)nc1`, the GI50 is inactive: > 100 µM.

On to `COc1cc(C2c3cc4c(cc3OC(NC3CCCCC3)C2C)OCO4)cc(OC)c1OC` (configuration not stated), for which the GI50 is active: 0.662 µM.

On to `C=C1C(=O)O[C@@H]2C=C(C)C3=CC(=O)[C@](C)(C[C@H](OC(=O)/C(C)=C\C)[C@@H]12)O3`, for which the GI50 is inactive: 3.51 µM.

Turning to `CC(=O)CC(OC(C)=O)C1=CCC2C(CC1C)OC(=O)C2C` (configuration not stated), the GI50 is inactive: > 100 µM.

For the molecule `N#C/C(=C\c1ccccc1)c1nc(-c2cc3ccccc3oc2=O)cs1`, the GI50 was inactive: 87.3 µM.

Consider `COC(=O)c1ccccc1CC1Cc2ccc3c(c2C1=O)CCCC3` (configuration not stated), for which the GI50 is inactive: > 100 µM.

Regarding `CN1C(=O)C2(C=CC(O)CC2)c2ccccc21` (configuration not stated), the GI50 is inactive: > 100 µM.

For `CC(=O)OCC1OC(OCCCOP(=S)(OCCC#N)OCC2OC(n3ccc(N)nc3=O)C(OC(=O)c3ccccc3)C2OC(=O)c2ccccc2)C(OC(C)=O)C(OC(C)=O)C1OC(C)=O` (configuration not stated), the GI50 was inactive: > 100 µM.

Turning to `CC(C)N/C(N)=N/C#N`, the GI50 was inactive: > 100 µM.

`COc1nc(OC)c2c(=O)oc(-c3ccccc3)cc2n1`: the GI50 was inactive: > 100 µM.

`Cc1ccc(C)c(NC(=O)C(Cc2c[nH]c3ccccc23)NC(=O)OCc2ccccc2)c1` (configuration not stated): the GI50 was inactive: 15.6 µM.

As to `COC(=O)C(/C(=N/N)C(=O)Nc1cc(Cl)c(Cl)cc1Cl)c1nc2ccc(Cl)cc2nc1O` (configuration not stated), the GI50 was inactive: > 100 µM.

As for `O=C(O)/C=C\C(=O)c1ccc(Cl)cc1`, the GI50 is inactive: > 100 µM.

Take `CC(=O)NCCC1CN(C(=O)/C=C\I)c2ccccc21` (configuration not stated): the GI50 was inactive: 16.1 µM.

For the molecule `NNC(=O)N/N=C1\C(=O)N(c2ccc(Cl)c(Cl)c2)C(=O)C(=O)C1c1nc2ccccc2s1` (configuration not stated), the GI50 was inactive: > 100 µM.

Take `CN(C)c1ccc(/C=C(\NC(=O)c2ccccc2)C(=O)Nc2ccccc2C(=O)NN2C(=O)CSC2c2ccc(N(C)C)cc2)cc1` (configuration not stated): the GI50 was inactive: > 100 µM.

`N#CC1Cc2cc3c(cc21)OCO3` (configuration not stated): the GI50 was inactive: > 100 µM.

For the molecule `Cc1cc(S(=O)(=O)NC2=Nc3ccc(Cl)cc3C(c3ccccc3)N2)c(S)cc1Cl` (configuration not stated), the GI50 is inactive: 20.3 µM.

Take `CN1C(=O)C(=CN(C)c2ccccc2)C(=O)N(C)C1=O`: the GI50 is inactive: > 100 µM.

As to `N#Cc1cc(C#N)c(Cl)nc1N`, the GI50 is inactive: > 10 µM.

`Cc1ccc2nc3n(c2c1)C(c1c(F)cccc1F)SC3` (configuration not stated): the GI50 was inactive: > 100 µM.

Consider `CC(=O)O[C@H]1CC[C@@]2(C)C(=CC[C@@H]3C2CC[C@]2(C)Nc4c(cnn4-c4ccccc4)CC32)C1` (some centres not stated), for which the GI50 is inactive: 5.77 µM.

Consider `CSc1c(C(=O)Nc2ccccc2)c(N)n(N)c(=O)c1C#N`, for which the GI50 was inactive: > 100 µM.

As to `O=C1CCCCCCCCCCC1CN(Cc1ccccc1)Cc1ccccc1` (configuration not stated), the GI50 is inactive: > 100 µM.

Take `CC1=NN(C(=O)CC(=O)Nc2ccccc2)C(=O)C1/N=N/c1ccc(C(=O)O)cc1` (configuration not stated): the GI50 was inactive: > 100 µM.

As to `O=C1CC2CC=C[C@H]3c4cc5c(cc4C(=O)N1C23)OCO5` (some centres not stated), the GI50 is inactive: > 50 µM.

Regarding `O=C(COc1ccc(Cl)cc1)N1N=C(c2ccc([N+](=O)[O-])o2)CC1(O)c1ccccc1` (configuration not stated), the GI50 was inactive: 10.2 µM.

As for `Cc1ccc(SC(=O)N2C(=S)N=C(NC3CCCCC3)C23CCCCC3)cc1`, the GI50 is inactive: > 100 µM.

Consider `CNS(=O)(=O)c1ccc2c(c1)/C(=C1/Nc3ccccc3C1=O)C(=O)N2`, for which the GI50 was inactive: > 100 µM.

Turning to `C#C[C@]1(O)CC[C@H]2[C@@H]3CCC4=C/C(=N\OCCN5CCCC5)CC[C@]4(C)[C@H]3CC[C@@]21C`, the GI50 is inactive: 14.3 µM.

In the case of `COC(=O)C1C(O)C(C)C(=O)C(C)/C=C\C=C(C)C(=O)Nc2c(C)c(OC(C)=O)c3c(c2O)C(=O)C(C)=C2OCOC(=C23)C(C)=CC(C)(O)C(O)C(C)C1O` (configuration not stated), the GI50 was inactive: 71 µM.

Consider `CCOC(=O)C1C(=O)c2cccc(OC)c2C2COC(=O)N12` (configuration not stated), for which the GI50 is inactive: > 100 µM.

In the case of `COc1cc([C@@H]2C3C(=O)c4ccccc4C3[C@@H](c3cc(OC)c(OC)c(OC)c3)C23Cc2ccccc2C3=O)cc(OC)c1OC` (some centres not stated), the GI50 was inactive: 89.5 µM.

Turning to `O=C(/C=C/c1cccc([N+](=O)[O-])c1)N1CCN(CCOC(c2ccccc2)c2ccccc2)CC1`, the GI50 is inactive: > 100 µM.

With `CCC1(Br)C(=O)NC(=O)N(C2CC(O)C(CO)O2)C1N=[N+]=[N-]` (configuration not stated), the GI50 is inactive: > 100 µM.

On to `NC(=O)c1c2c(n3ccccc13)C(=O)c1ccccc1C2=O`, for which the GI50 is inactive: 76.7 µM.

With `CN1C(=O)N/C(=C\c2ccc(S(=O)(=O)NN)cc2)C1=O`, the GI50 was inactive: > 100 µM.

Regarding `O=c1/c(=C/c2ccc(-c3ccc(Cl)cc3Cl)o2)sc2n1[C@@H](c1ccc(Cl)cc1)C=C(c1cc(F)c(Cl)cc1Cl)N=2`, the GI50 is inactive: 48 µM.

Regarding `CCN(CCC#N)C(=O)Nc1ccccc1`, the GI50 is inactive: > 100 µM.

In the case of `CN(C)CCNC(=O)c1cccc2nc3cc(Cl)ccc3nc12`, the GI50 was inactive: 2.08 µM.

Consider `Cc1nc2[nH]ccn2c(=O)c1CCCl`, for which the GI50 is inactive: 40.9 µM.

For `CC1(C)CCc2ccc(OCCC(=O)O)cc2O1`, the GI50 was inactive: > 100 µM.

With `C#CCN1CCN(C(=S)N/N=C(\C)c2ccccn2)CC1`, the GI50 is active: 0.22 µM.

With `O=C(c1ccccc1)c1ccc2[nH]c(-c3c(Cl)c(Cl)c(Cl)c(Cl)c3C(=O)N/N=C/c3cccc(Oc4ccccc4)c3)nc2c1`, the GI50 was inactive: > 100 µM.

As to `Cc1nc(-n2nc(-c3ccccc3)cc2-c2ccccc2)sc1C(=O)/C=C/c1ccc(/C=C/C(=O)c2sc(-n3nc(-c4ccccc4)cc3-c3ccccc3)nc2C)cc1`, the GI50 was inactive: 24.3 µM.

On to `O=C(c1ccccc1)c1ccc2c(c1)NC(=O)c1ccccc1SSc1ccccc1C(=O)N2`, for which the GI50 is inactive: > 100 µM.

In the case of `COC(=O)C(NC(=O)CNC(=O)CSc1nnc(COc2ccc(Cl)cc2)n1-c1ccccc1)C(C)C` (configuration not stated), the GI50 is inactive: 19.2 µM.

Consider `COC(=O)C(c1ccc(OC)cc1)N1C(=O)[C@@H](NC(=O)c2ccccc2)[C@H]1[C@@H](C)O` (some centres not stated), for which the GI50 is inactive: > 100 µM.

With `C[C@]12CCC(=O)C[C@H]1CCC(O)[C@@H]2Br` (some centres not stated), the GI50 was inactive: > 100 µM.

As to `CC(C)=CCC/C(=C\CC/C(=C\CCc1ccoc1)C(=O)O)C(=O)O`, the GI50 was inactive: > 100 µM.

On to `COc1cc(/C=C2/C(=O)N(C(=O)c3ccccc3O)N=C2C)ccc1O`, for which the GI50 is inactive: 1.62 µM.

Regarding `COc1ccc(-c2nc(O)c3ccccc3n2)cc1`, the GI50 was inactive: > 100 µM.
